According to PubChem BioAssay AID1240 (Sanford-Burnham Center for Chemical Genomics, 2008):
Out of some 50,000 compounds screened, about 800 (1.6%) showed an effect of 50% or more. Some of the results follow.

biological target: Bcl-2-like protein 10 (Homo sapiens) (UniProt Q9HD36); experiment: Phenotype converters, Bcl-B/TR3 peptide binding displacement, primary biochemical FP (AID 1240); settings: GST-Bcl-B / FITC-TR3 peptide fluorescence polarization; stronger effect = higher value; compound at 3.75 mg/L;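 also: 0% = Bcl-B with tracer peptide and DMSO and 100% = tracer peptide lacking Bcl-B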
UniProt Q9HD36, sequence (Q9HD36 whole entry, looked up): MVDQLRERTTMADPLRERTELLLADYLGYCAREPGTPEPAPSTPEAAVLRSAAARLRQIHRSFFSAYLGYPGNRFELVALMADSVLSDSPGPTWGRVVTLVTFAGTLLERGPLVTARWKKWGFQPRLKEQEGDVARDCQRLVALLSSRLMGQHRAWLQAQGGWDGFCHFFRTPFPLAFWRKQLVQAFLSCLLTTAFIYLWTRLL

Compound	displacement
O=C(CC(Nc1cccc(Cl)c1)c1ccc(F)cc1)c1ccccc1 (centres undefined)	10.6%
COc1ccc(S(=O)(=O)N2CCN(C3CC4CCC3C4)CC2)cc1 (centres undefined)	-1.9%
NC(=O)c1c(NC(=O)c2ccccc2F)sc2c1CCCCCC2	-2.5%
Cc1cc(Cl)ccc1OCC(=O)NC1CC(C)(C)NC(C)(C)C1	11.8%
CC1CCN(C(=O)Nc2ccccc2)CC1	-8.9%
O=C(Nc1ccc(Cc2ccncc2)cc1)Nc1cccc2ccccc12	-14.3%
COC(=O)c1ccccc1P(=O)(c1ccccc1)c1ccccc1	5.5%
Cc1ccc(C(=O)N2CCN(C(=O)CN3CCCC3)C2)cc1	13.5%
CCOC(=O)N1CCN(c2cc(N3CCC(C)CC3)c(F)cc2[N+](=O)[O-])CC1	-2.7%
O=C(O)CCCN1C(=O)C(=O)/C(=C(/O)c2ccccc2)C1c1ccc(Br)cc1 (centres undefined)	-20.6%
CCN(CC)C(=O)COc1ccc2oc(C)c(C(=O)OC(C)C)c2c1	8.5%
N#CC1=C(N)OC2=C(C(=O)CCC2)C1c1ccc2c(c1)OCO2 (centres undefined)	11.4%
Cc1[nH]nc2c1C(c1cc(Br)cs1)C(C#N)=C(N)O2 (centres undefined)	-2.4%
S=C(Nc1ccccc1)NC1CCCC1	8.3%
COc1ccccc1N1CCN(C(=O)NC2CCCCC2)CC1	2.7%
O=C(Nc1cc(Cl)c(Cl)cc1Cl)c1ccccc1[N+](=O)[O-]	4.6%
CC(C)=CCCC(C)NCc1ccco1 (centres undefined)	-8.8%
Cc1ccc(N(CC(=O)Nc2ccccc2Br)S(C)(=O)=O)cc1Cl	15.8%
Clc1ccc(N2CCN(N=Cc3cccc(OCc4ccccc4)c3)CC2)cc1	11.5%
CC(C)(C)C1CCc2c(sc(NC(=O)c3ccc(F)cc3)c2C(N)=O)C1 (centres undefined)	-0.6%
Cc1nn(-c2ccccc2)c2sc(C(=O)N(C)c3ccccc3)cc12	8.2%
O=C(CN1CCCCCC1)Nc1cccc2c1OCO2	-11.4%

Compound	displacement
O=C(COc1ccccc1[N+](=O)[O-])Nc1cccc(-c2nc3ncccc3o2)c1	7.2%
Cc1ccc(S(=O)(=O)N(CC(=O)NC2CCCC2)c2cccc(Cl)c2)cc1	-1.5%
CN1CCc2c(sc3c2C(=O)NC(c2ccc(-c4ccccc4[N+](=O)[O-])o2)N3)C1 (centres undefined)	33%
CCCOC(=O)C1=C(C)NC2=C(C(=O)CC(C)(C)C2)C1c1ccc(N(C)C)cc1 (centres undefined)	3.4%
O=C(OCc1ccccc1)Sc1nnc(-c2ccc(Br)cc2)o1	14%
COc1ccc(N2C(=O)CC(Cc3ccc(Br)cc3)C2=O)cc1 (centres undefined)	15%
COc1ccc(OCC(=O)Nc2ccc(NC(=O)c3ccccc3)cc2)cc1	12.6%
O=C(c1ccc(N2CCN(C(=O)c3ccccc3Br)CC2)cc1)c1cccc(F)c1	1%
NNC(=O)C1CCC(c2ccccc2)CC1 (centres undefined)	-6.6%
COc1ccc(N2C(=O)c3cccc4c(NC(CO)(CO)CO)ccc(c34)C2=O)cc1	43.6%
O=C(NNC1=C(C(=O)C(F)(F)F)CCC1)c1cccc(Cl)c1	-19.1%
O=C(NC(=S)Nc1ccc(NC(=O)c2ccccc2)cc1)c1ccc(Cl)cc1	3.5%
O=C1c2cccc3c(Br)ccc(c23)C(=O)N1Nc1ccccc1	8.2%
Cc1ccccc1C(=O)Nc1sc2c(c1C(=O)N1CCOCC1)CCCCC2	-5.4%
CCc1cc(C(=O)N=Nc2c(O)[nH]c3ccc(Br)cc23)c2ccccc2n1	12.8%
COc1ccc(-c2noc(-c3ccco3)n2)cc1	0.3%
O=C1N/C(=N/N=C\c2ccco2)SC1Cc1ccc(SC(F)F)cc1 (centres undefined)	-20.8%
Cc1ccc(OCC(=O)Nc2ccc(I)cc2Cl)c(C)c1	-18.3%
CCN(CC)CCSc1nc2sc3c(c2c(=O)n1-c1ccccc1)CC(C)(C)OC3	-5.6%
CCCCNc1cc(C)oc(=O)c1C(C)=O	-6.8%
Cc1ccc(C(=O)CSc2nc3ccccc3c(=O)n2-c2ccccc2)cc1	11.8%
CC/C(C)=N/Nc1nc(-c2ccccc2)c(C)s1	-30.1%

Compound	displacement
COc1cccc(CN2CCN(C3CCCCC3C)CC2)c1OC (centres undefined)	0.8%
O=C(c1ccc(Cl)cc1)C(Sc1nnnn1-c1ccccc1)c1ccc([N+](=O)[O-])cc1 (centres undefined)	28.8%
COCCCNC(=O)COc1ccccc1C	3.2%
Fc1cnc(N2CCOCC2)nc1N1CCN(c2ccccc2)CC1	3.9%
CC(C)(C)c1cc(C2=C(N3CCOCC3)C(=O)c3ccccc3C2=O)cc(C(C)(C)C)c1O	11.6%
CC(C)(C)c1ccc(C(=O)N/C(=C/c2ccc(Br)cc2)C(=O)NN)cc1	-53.2%
COc1ccc(-c2nnc(-c3ccc(Cl)cc3)o2)cc1	12.1%
CC1=NN(C(=N)c2ccccc2)C(C)(O)C1 (centres undefined)	-25.3%
Cc1cc(/C=N/NC(=O)CC#N)c(C)n1-c1cc(Cl)ccc1Cl	-8.3%
O=C1C(=O)N(Cc2ccccc2)C(c2ccccc2)/C1=C(/O)c1ccccc1 (centres undefined)	0.2%
C/C(=N/OCc1nc2c3c4c(sc3ncn2n1)CCCC4)c1ccc(C)cc1	39.3%
O=C1C2C3C=CC(CC3)C2C(=O)N1c1ccc(Br)cc1[N+](=O)[O-] (centres undefined)	16.1%
O=C1NC(=O)N(c2cccc(F)c2)C(=O)/C1=C/c1ccc(OCc2cccc(C(=O)O)c2)cc1	9.2%
c1ccc2c(N3CCCCCC3)nc(-c3ccncc3)nc2c1	-11.3%
COc1ccc(/C=C/C(=O)Nc2ccc(NC(=O)c3ccco3)c(OC)c2)cc1	9.7%
CC(C)(C)c1ccc(OCC(=O)Nc2cccc(NC(=O)c3cccc(Cl)c3)c2)cc1	3.2%
Cc1cc(OCC(=O)Nc2cccc(S(N)(=O)=O)c2)ccc1Cl	0%
O=C(O)c1ccccc1-c1ccccc1C(=O)Nc1ccc(I)cc1	-9.1%
COc1ccc(NC(=O)C2C(C(=O)O)C3C=CC2C32CC2)cc1 (centres undefined)	-0.9%
COc1cccc2cc(-c3nc(-c4ccc(Cl)cc4Cl)cs3)c(=O)oc12	-11.5%
O=C(/C=C/c1ccccc1Cl)NC(c1ccccc1)c1ccccc1	2.1%
CCOC(=O)c1ccccc1NC(=O)CN(c1ccc(Br)cc1)S(C)(=O)=O	-5%

Compound	displacement
COc1ccc(N2C(=O)/C(=C/c3ccc(-c4ccccc4[N+](=O)[O-])o3)SC2=S)cc1	11.9%
CCCCC(CC)CNC(=O)COc1cc(C)c(Cl)c(C)c1 (centres undefined)	4.2%
O=C(Nc1ccc(F)cc1F)c1cnn2c1NC(c1cccs1)CC2C(F)(F)F (centres undefined)	2.3%
COc1ccc(/C=C2\SC(=O)N(CCc3nnc(N)s3)C2=O)cc1	10.5%
CCOc1ccc(N2C(=O)NC(=O)/C(=C\c3ccc(-c4ccccc4C(=O)O)o3)C2=O)cc1	14.1%
COc1ccc(-c2nc(-c3ccc(Cl)cc3)no2)cc1	3.1%
CCCOc1ccc(C(=O)Nc2ncc(Cc3cccc(C(F)(F)F)c3)s2)cc1	0.4%
O=C(CSc1nc2ccc([N+](=O)[O-])cc2s1)N1CCOCC1	1.4%
NC(=O)c1c(NC(=O)c2ccccc2Cl)sc2c1CCC2	-3.6%
COC(=O)c1ccc(NC(=O)CC2Nc3ccccc3NC2=O)cc1 (centres undefined)	108%
Cc1ccc(/C(N)=N/OC(=O)COc2ccccc2C)cc1	-4.5%
CCN(CC)S(=O)(=O)c1cc(C(=O)NC2CCCCC2)ccc1C	-8%
COc1ccc(/C=C/C(=O)Nc2ncc(Cc3ccccc3Cl)s2)cc1	-17.4%
COc1ccc(S(=O)(=O)N2CCN(Cc3ccco3)CC2)cc1	11.1%
CCOc1ccccc1NC(=O)c1c(NC(=O)c2cccc(F)c2)sc2c1CCCCC2	0.3%
O=C(NCc1cccc2ccccc12)c1ccccc1C(F)(F)F	-3.8%
COc1ccccc1N1CCN(/N=C\c2ccccc2C(F)(F)F)CC1	-15.2%
Cc1ccsc1/C=C1\SC(=S)N(CC2CCCO2)C1=O (centres undefined)	1%
CCOc1cc(OCC)cc(C(=O)Nc2ccccc2C(=O)OC)c1	-7.8%
CCc1ccc(N2C(=O)/C(=C/c3ccc(OCC(=O)O)c(OC)c3)C(=O)NC2=S)cc1	-9.5%
CCc1c(C)sc(NC(=O)CCc2ccc(OC)cc2)c1C(=O)OC	-0.4%
Cc1c(NS(=O)(=O)c2cccc3c2C(=O)c2ccccc2C3=O)c(=O)n(-c2ccccc2)n1C	5.4%

Compound	displacement
Cc1cccc(NC(=S)NC(=O)COc2ccccc2)c1	12.1%
COc1cc(NS(=O)(=O)c2ccc(NC(=O)/C(=C\c3ccccc3OC)NC(=O)c3ccccc3)cc2)nc(OC)n1	4.5%
CCc1ccc(-c2ncnn2-c2ccc(Cl)cc2)cc1	12.4%
COc1cc(NC(=O)c2cccs2)c(OC)cc1Cl	-7.4%
CC1(C)CC(NC(=O)COc2ccc(Br)cc2)CC(C)(C)N1	0.7%
CC(=O)Nc1ccc(C2(O)COc3ccccc3O2)cc1 (centres undefined)	8.9%
Cc1occc1C(=O)Nc1ccc(C(=O)O)cc1	-1.9%
CCN(CC)CCCNS(=O)(=O)c1ccc([N+](=O)[O-])cc1	-5.3%
CC(=O)Oc1ccc2occ(C(=O)c3ccccc3)c2c1	-2.8%
O=C(Nc1ccc(Nc2ccccc2)cc1)c1ccccc1[N+](=O)[O-]	10.4%
O=C(Cc1cccs1)Nc1cccc(C(F)(F)F)c1	10.7%
CCCCCC(=O)NNC(=O)c1ccco1	-2%
COC(=O)c1ccc(C=NN2CCN(Cc3ccccc3)CC2)cc1	21.9%
COc1ccccc1C(=O)Nc1ncc(S(=O)(=O)c2ccc([N+](=O)[O-])cc2)s1	-7%
Clc1ccc(N2CCN(N=Cc3cccc4ccccc34)CC2)cc1	-7.4%
CCOc1cc(/C=C2/C(=O)NC(=O)N(c3ccccc3)C2=O)ccc1OCc1ccc([N+](=O)[O-])cc1	75.9%
Cc1ccc(NC(=O)COc2ccc3ccccc3c2)c([N+](=O)[O-])c1	8.1%
Cc1ccc(N(CCCCN2C(=O)c3ccccc3C2=O)C(=O)Nc2ccc([N+](=O)[O-])cc2)cc1	-1.6%
C[n+]1ccc(-c2ncc(-c3ccc(F)cc3)o2)cc1	2.6%
O=C(NC(=S)Nc1ccc(C(=O)N2CCOCC2)cc1)c1cccs1	-0.5%
Cc1ccnc(NC(=O)/C=C/c2ccc3c(c2)OCO3)c1	-1.5%
